We go through 90 molecules from PubChem BioAssay AID463173 (ICCB-Longwood Screening Facility, Harvard Medical School, 2010).

Among all 52,000 compounds or so, about 1,700 (3.3%) were called active. Rule as the data show it: active = survival mostly below about 52% (no sharp cut-off); inactive = mostly above about 56%. The list shows a part of the results.

This experiment concerns Wild type. In words: growth inhibition of S. aureus wild type versus tarO mutant, primary screen, teichoic acid synthesis inhibitors, RN4220, OD600 (AID 463173). To be noted: S. aureus RN4220 wild type/DeltatarO growth, OD600, 18 h, stronger effect = lower value, screened at 18.75 µg/mL (by protocol).
For the molecule `CSc1nnc(Cc2ccccc2)n1-c1ccc(C)cc1`, the survival was inactive: 105%.
On to `N#Cc1cccc(NC(=O)C2CCN(c3cnccn3)CC2)c1`, for which the survival was inactive: 105%.
Then `O/N=C/c1cn(-c2ccccc2)nc1-c1ccccc1`, with inactive: 118%; and `CC(=O)Nc1ccc(NC(=O)c2cc3c(=O)n(Cc4cccnc4)ccc3nc2C)cc1`, with inactive: 65%; and `CCOc1ccccc1-c1noc(CCCC(=O)Nc2cccc(C(F)(F)F)c2)n1`, with inactive: 67%.
For `O=C(CSc1nc(-c2ccc(F)cc2)nc2c1Cc1ccccc1O2)Nc1cccc(C(=O)O)c1`, the survival is inactive: 66%.
On to `CCOC(=O)CCN(c1ccccc1)S(=O)(=O)c1cc(-c2cc(C)no2)ccc1C`, for which the survival was inactive: 72%.
Consider `CCc1cc2c(cc3c(=O)n(CC(=O)NC4CCCCC4)nc(CC)n32)s1`, for which the survival was inactive: 85%.
Under `Cc1cn(C)c(CC(=O)N2CCN(c3cccc(C(F)(F)F)c3)CC2)c1C(=O)O` stands inactive: 131%.
With `Cc1ccc(C(=O)NCC(=O)OCc2cc(=O)n3c(C)csc3n2)cc1`, the survival was inactive: 66%.
As for `CC(=O)N1CCc2c(sc3c2c(=O)n(-c2ccccc2C)c(=O)n3CC(=O)c2ccccc2)C1`, the survival is inactive: 128%.
Regarding `Cc1cc(C)c2oc(C(=O)Nc3c(C)n(C)n(-c4ccccc4)c3=O)cc(=O)c2c1`, the survival is inactive: 86%.
`O=C(NCC(c1cccnc1)N1CCc2ccccc21)c1ccc(F)c(F)c1` (stereo not given): the survival was inactive: 90%.
For the molecule `Cc1ccc(C(C)C)c(OCC(=O)NCC2(N3CCOCC3)CCCCC2)c1`, the survival was inactive: 83%.
For `Cc1cccc(C(=O)Nc2cccc(OCc3cc(=O)n4cc(C)sc4n3)c2)c1`, the survival was inactive: 77%.
As for `CC1Cc2ccccc2N1C(=O)c1nc2ccccc2s1` (stereo not given), the survival was inactive: 113%.
For the molecule `Cc1ccc(C)c(NC(=O)Cn2c(=O)n(-c3ccccc3C)c(=O)c3c2c2cc(C)ccc2n3C)c1`, the survival was inactive: 138%.
On to `CC(C)n1cc2c(c1-c1ccccc1Cl)c(=O)n(C)c(=O)n2C`, for which the survival was inactive: 89%.
As to `CC(=O)Nc1c(O)c2ccccc2[nH]c1=O`, the survival is inactive: 101%.
Consider `Cc1ccc(-n2cc3c(c2-c2ccccc2Br)c(=O)n(C)c(=O)n3C)cc1N`, for which the survival was inactive: 104%.
`O=S(=O)(NCCc1ccccc1)c1cccc(S(=O)(=O)N2CCOCC2)c1`: the survival is inactive: 101%.
On to `COc1ccccc1N1CCN(CCCNC(=O)c2nnc(Cc3c(F)cccc3Cl)o2)CC1`, for which the survival is inactive: 85%.
Regarding `COc1ccccc1-c1nc2c(c(SCC(=O)Nc3ccccc3F)n1)Cc1c(CO)cnc(C)c1O2`, the survival was inactive: 99%.
For `Cc1ccnc(N2CCC(C(=O)NCCC(C)C)CC2)n1`, the survival was inactive: 103%.
As for `CCN1CCN(CCCNC(=O)Cn2c(-c3cccs3)cc3ccccc32)CC1`, the survival is inactive: 74%.
`Cc1ccc2c(=O)cc(C(=O)N(Cc3ccccc3Cl)C3CCS(=O)(=O)C3)oc2c1` (stereo not given): the survival was inactive: 108%.
Consider `COc1ccc(-c2cc(-c3ccccc3)c(C#N)c(SCC(O)CS(=O)(=O)Cc3ccccc3)n2)cc1` (stereo not given), for which the survival was inactive: 93%.
Then `Cc1ccc2cc(CN(Cc3cccs3)Cc3nnnn3C(C)(C)C)c3nnnn3c2c1`, with inactive: 103%; and `COc1ccc(/C=N/O)cc1COc1ccc(NC(C)=O)cc1`, with inactive: 105%.
Then `COc1ccccc1C(=O)Nc1c(C(=O)N2CCN(c3ccc(F)cc3)CC2)oc2ccccc12`, with active: -2%; and `COc1ccc(NC(=O)C2CCCN(C(=O)c3cnn(-c4ccccc4)c3-n3cccc3)C2)cc1` (stereo not given), with inactive: 75%; and `COc1ccc(-c2noc(C3CCCN(C(=O)c4ccccc4)C3)n2)cc1` (stereo not given), with inactive: 108%.
In the case of `CCOc1ccc(CCNC(=O)CS(=O)(=O)Cc2nc(-c3cccc(Cl)c3)oc2C)cc1`, the survival is inactive: 82%.
In the case of `COc1ccc(S(=O)(=O)N2CCN(C(c3ccc(OC)c(OC)c3)c3nnnn3C3CCCCC3)CC2)cc1` (stereo not given), the survival is inactive: 103%.
For the molecule `CC(O)CNC(=O)C(=O)Nc1c2c(nn1-c1ccc(Cl)cc1)CSC2` (stereo not given), the survival is inactive: 57%.
Then `COC(=O)c1ccc(NC(=O)CCc2c(C)nn(-c3ccc(N4CCOCC4)nn3)c2C)cc1`, with inactive: 74%.
Take `O=C(Nc1ccc(F)cc1)c1ccc(Cn2nc(N3CCN(c4ccccc4)CC3)ccc2=O)o1`: the survival is inactive: 105%.
Consider `O=C(CSc1nnc(CNc2ccc(F)cc2)o1)N1CCOCC1`, for which the survival is inactive: 111%.
As to `O=C(CN1CCN(C(=O)N2CCCCC2)CC1)Nc1ccc(F)cc1`, the survival is inactive: 124%.
`Cc1cc(C)c(NC(=O)CNC2CC(C)(C)NC(C)(C)C2)c(C)c1`: the survival was inactive: 105%.
`CCOC(=O)c1c(C)[nH]c(C)c1S(=O)(=O)N1CCC(C(=O)N2CCN(c3cccc(C)c3C)CC2)CC1`: the survival is inactive: 71%.
Regarding `COc1ccccc1-c1nc2c(c(SCc3ccc(F)cc3Cl)n1)Cc1c(CO)cnc(C)c1O2`, the survival was inactive: 85%.
As for `COc1ccc(CCNc2nc(-c3ccc(Cl)cc3)cc(C(F)(F)F)n2)cc1OC`, the survival was active: 18%.
Then `COc1cccc(-c2cc(C(=O)N3CCN(c4ccccc4OC)CC3)no2)c1`, with active: -9%; and `CCc1ccc(NC(=O)c2sc3nc4c(cc3c2N)CN(CC)CC4)cc1`, with inactive: 84%.
Regarding `COc1ccc(Cl)cc1NC(=O)Cc1coc2c(C)c(C)ccc12`, the survival is inactive: 81%.
Consider `Cc1cc2ncn(CCC(=O)NC(C)(C)C)c2cc1C`, for which the survival was inactive: 104%.
As to `O=C(CN(c1ccc2c(c1)OCCO2)S(=O)(=O)c1ccccc1)N1CCCCCC1`, the survival was inactive: 114%.
As to `Cc1cccc(CSc2nc3cc(C(=O)NC4CCCC4)ccc3c(=O)n2Cc2ccccc2)c1`, the survival is inactive: 88%.
With `Cc1coc2cc3oc(=O)c(CC(=O)N4CCCCC4)c(C)c3cc12`, the survival was inactive: 86%.
Consider `Cc1cccc(NC(=O)CN2C(=O)CSC2=O)c1`, for which the survival is inactive: 104%.
Then `Cc1ccc(CNS(=O)(=O)c2ccc(-c3cnc(C4CC4)o3)cc2)cc1`, with inactive: 71%.
As to `CCc1cccc(NC(=O)Cn2c(=O)c(C(F)(F)F)nc3ccccc32)c1`, the survival was inactive: 80%.
Take `CCC(CC)C(=O)Nc1c(C(=O)N2CCN(c3ccccc3)CC2)oc2ccccc12`: the survival is inactive: 110%.
With `Cc1cc(C)c2c(=O)cc(C(=O)Nc3nc4ccc(F)cc4s3)oc2c1`, the survival was inactive: 81%.
For the molecule `Cc1cc(=O)oc2cc3c(cc12)OCCN3`, the survival was inactive: 110%.
Turning to `CCCN(CCC)CC(O)Cn1cc(/C=C/C(=O)c2ccc(OC)cc2)c2ccccc21` (stereo not given), the survival is active: 1%.
Consider `CC1CCCCN1C(=O)c1ccc2c(c1)N(Cc1cccc(Cl)c1)C(=O)c1ccccc1S2=O` (stereo not given), for which the survival is inactive: 101%.
Turning to `O=C(c1cccc(F)c1)c1ccc2c(c1)CCCO2`, the survival was inactive: 101%.
For the molecule `CCCCNC(=O)c1cccc(-n2cnc3cccnc32)c1C`, the survival is inactive: 68%.
Regarding `CN1C(=O)SC(CC(=O)O)C1=O` (stereo not given), the survival is inactive: 108%.
On to `Cc1cc(N(C)Cc2ccccc2)n2nc(-c3ccc(C(C)(C)C)cc3)nc2n1`, for which the survival is inactive: 77%.
In the case of `CCc1ccc(-n2nc3cc(C)c(NC(=O)c4ccccc4C)cc3n2)cc1`, the survival was inactive: 75%.
In the case of `O=C(CCN1CCc2ccccc2C1)Nc1ccc(F)c(F)c1`, the survival was inactive: 100%.
On to `CCOc1ccc(-c2c(C)nn3c(C)c(C(=O)NCc4ccc(Cl)cc4)cnc23)cc1OCC`, for which the survival was inactive: 123%.
Under `COc1ccc(OCCn2nnc3sc4c(c3c2=O)CCC(C(C)(C)C)C4)cc1` (stereo not given) stands inactive: 122%; under `CC1CCN(c2nc3c(-c4cccc(Br)c4)nnn3c3ccccc23)CC1`, inactive: 85%; under `COc1ccc(CNC(=O)CCc2c(C)nn(-c3ccc(N4CCCCC4)nn3)c2C)cc1`, inactive: 83%.
Regarding `CCCCCn1c(=O)[nH]c2cc(C(=O)NCCN(C)CCCC)ccc2c1=O`, the survival was inactive: 70%.
Turning to `CCC(NC(=O)Nc1cc(Cl)ccc1OC)c1c(-n2cccc2)sc2c1CCN(C)C2` (stereo not given), the survival is inactive: 72%.
Under `N=c1n(CCO)c2ccccc2n1Cc1ccccc1F` stands inactive: 74%.
Under `COc1ccc(CCNC(=O)c2cc(=O)c3cc(C)cc(C)c3o2)cc1OC` stands inactive: 93%; under `O=C(CSc1c2c(nc3ccc(Cl)cc13)CCCC2)NCc1ccccc1Cl`, inactive: 116%; under `O=C(OCc1ccco1)c1ccc2c(c1)N(Cc1cccc(F)c1)C(=O)c1ccccc1S2`, inactive: 66%.
`CCOc1ccccc1NC(=O)CC(c1ccc(F)cc1)N1Cc2ccccc2C1=O` (stereo not given): the survival was inactive: 80%.
For the molecule `Cc1ccc(-c2cc(C(=O)OCC(=O)c3ccccc3)c3cccc(Cl)c3n2)cc1`, the survival was inactive: 102%.
`CCC(Sc1nc2ccccc2c2nc(CCn3c(C)nc4ccccc43)nn12)C(=O)Nc1ccc(F)cc1` (stereo not given): the survival is inactive: 73%.
On to `COc1ccc(Br)c(C(=O)Nc2cc3c(cc2N2CCCC2)n(C)c(=O)c(=O)n3C)c1`, for which the survival is inactive: 83%.
Then `COc1ccc(CCNC(=O)CCCn2c(=O)c3cccn3c3ccccc32)cc1OC`, with inactive: 63%.
Under `COc1ccccc1N1CCN(C(=O)C2CCN(S(=O)(=O)Cc3ccccc3)CC2)CC1` stands inactive: 84%.
As for `CCC(Cc1ccccc1)NC(=O)CN1C(=O)COc2ccc(S(=O)(=O)N3CCCCCC3)cc21` (stereo not given), the survival was inactive: 118%.
In the case of `Cc1cc2c(cc1NC(=O)c1ccccc1C)n(C)c(=O)c(=O)n2C`, the survival was inactive: 55%.
In the case of `CCOCCCNC(=O)C1CCN(C(=O)c2cc3sccc3n2C)CC1`, the survival was inactive: 79%.
Consider `CC1Cc2ccccc2N1C(=O)c1cc2n(n1)C(C(F)(F)F)CC(c1ccco1)N2` (stereo not given), for which the survival was inactive: 110%.
Then `CCCNC(=O)CSc1nnc(-c2cccnc2)n1C1CCCCC1`, with inactive: 100%; and `CC(C)CCN(Cc1ccco1)C(=O)c1cc2c(s1)-c1ccccc1OC2`, with active: 7%.
Consider `COc1ccc(NC(=O)CCCN2C(=O)C(c3ccccc3)Oc3cccnc32)c(OC)c1` (stereo not given), for which the survival was inactive: 86%.
Take `CCc1ccc(CNC(=O)CCCN2C(=O)CCn3nc(-c4cccn4C)cc32)cc1`: the survival is inactive: 75%.
In the case of `CCc1ccc2oc(C(=O)Nc3cccc(Cl)c3C)cc(=O)c2c1`, the survival was inactive: 88%.
`O=C(O)Cn1cnc2ccccc2c1=O`: the survival is inactive: 116%.
